{"source": "PubChem BioAssay AID588453", "about": "(National Center for Advancing Translational Sciences (NCATS), 2011)", "note": "Hit rate of the full screen: of about 390,000 compounds, about 4,000 (1%) were called active. Inconclusive results, whose numbers are uncertain, are shown with a selection of clear calls. Calls follow the shape of the dose curve; as a rule, active = well fitted inhibition curve with a large enough effect; inconclusive = small, poorly fitted or top-dose-only effect; inactive = no such curve, though single readings can be large or run the other way. A potency beside an inconclusive call is a rough fit, not a confirmed value.", "data": [{"molecular_target": "Thioredoxin reductase 1, cytoplasmic (Rattus norvegicus) (UniProt O89049)", "sequence (O89049 whole entry, looked up)": "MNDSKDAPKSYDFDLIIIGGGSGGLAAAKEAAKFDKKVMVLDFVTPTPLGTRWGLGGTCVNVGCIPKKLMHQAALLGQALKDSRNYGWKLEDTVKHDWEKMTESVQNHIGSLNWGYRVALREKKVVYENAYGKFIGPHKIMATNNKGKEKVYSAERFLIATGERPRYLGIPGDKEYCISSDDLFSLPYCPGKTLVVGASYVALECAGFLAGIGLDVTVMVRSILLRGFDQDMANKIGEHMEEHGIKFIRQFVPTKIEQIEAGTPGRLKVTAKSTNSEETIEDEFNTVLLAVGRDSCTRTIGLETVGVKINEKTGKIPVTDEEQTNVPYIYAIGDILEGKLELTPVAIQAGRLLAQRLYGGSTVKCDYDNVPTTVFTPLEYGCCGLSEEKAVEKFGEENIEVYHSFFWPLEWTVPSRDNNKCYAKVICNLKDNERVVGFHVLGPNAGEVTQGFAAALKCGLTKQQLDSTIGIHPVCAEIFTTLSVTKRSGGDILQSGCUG", "test": "qHTS Assay for Inhibitors of Mammalian Selenoprotein Thioredoxin Reductase 1 (TrxR1): qHTS; also: nearly all actives have a fitted effect of over 65% in size; also: potency is read from the fitted curve at half-maximal effect; tags tell the direction and shape of the fitted curve", "conditions": "recombinant rTrxR1, NADPH fluorescence consumption, selenite substrate; series mostly up to 114 µM", "procedure,_shortened": "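Rat TrxR1 (90 nM in the dispensed reagent) was pre-reduced with 400 uM NADPH for 5 min at room temperature, then incubated with compound for 15 min. After 400 uM selenite was added, NADPH fluorescence (Ex 340/Em 450 nm) was followed for 8 min.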", "values": [{"molecule": "COc1ccc(CN2CCNC(=O)C2CC(=O)NCc2cn3ccc(C)cc3n2)c(OC)c1", "note": "(centres undefined)", "Potency": "inconclusive: 89.1 µM [inhibitor, single point]"}, {"molecule": "CCOc1ccc(C2c3c(oc4cc(C)c(C)cc4c3=O)C(=O)N2CCCN(C)C)cc1OC", "note": "(centres undefined)", "Potency": "inconclusive: 39.8 µM [inhibitor, partial curve, poor fit]"}, {"molecule": "O=C(OCC(=O)N1CCN(c2ccc(F)cc2)CC1)c1cnc2ccccc2n1", "Potency": "inactive"}, {"molecule": "CN1C(=O)CC(Nc2cccc3cccc(N)c23)C1=O", "note": "(centres undefined)", "Potency": "active: 44.7 µM"}, {"molecule": "Cc1nc2c(=O)n(C)c(=O)n(C)c2nc1Cl", "Potency": "active: 2 µM"}, {"molecule": "CCCCC(=O)Nc1ccc(NC(=S)NC(=O)CCCCl)cc1OC", "Potency": "inconclusive: 79.4 µM [inhibitor, single point]"}, {"molecule": "COc1ccc(-n2cc(-c3ccccc3)[nH]c2=S)c(OC)c1", "Potency": "inconclusive: 79.4 µM [inhibitor, partial curve, poor fit]"}, {"molecule": "CC/C(=C(\\c1ccccc1)c1ccc(OCCN(C)C)cc1)c1ccccc1", "Potency": "inconclusive: 42.3 µM [inhibitor, single point]"}, {"molecule": "O=S(=O)(CC(CN1CCCCC1)N1CCCCC1)c1ccc2ccccc2c1", "note": "(centres undefined)", "Potency": "inconclusive: 35.5 µM [inhibitor, partial curve]"}, {"molecule": "COc1ccc(/C=C/C(=O)c2ccccc2O)cc1CN1CCOCC1", "Potency": "inconclusive: 0.224 µM [inhibitor, partial curve, poor fit]"}, {"molecule": "NC(=O)c1ccc(NC(=O)C#Cc2ccccc2)cc1", "Potency": "inconclusive: 15.8 µM [inhibitor, full curve]"}, {"molecule": "COc1cccc2[nH]c3c(N4CCC5(CC4)OCCO5)ncnc3c12", "Potency": "inconclusive: 50.1 µM [inhibitor, partial curve]"}, {"molecule": "CCN(C(=O)COC(=O)c1ccc(-n2c(C)ccc2C)cc1)c1c(N)n(Cc2ccccc2)c(=O)[nH]c1=O", "Potency": "inconclusive: 8.91 µM [inhibitor, partial curve, poor fit]"}, {"molecule": "Cc1csc2nc(COc3ccc(NC(=O)c4ccccc4F)cc3)cc(=O)n12", "Potency": "inactive"}, {"molecule": "O=C(CCOc1ccccc1F)N1CCN(c2ccccc2O)CC1", "Potency": "inactive"}, {"molecule": "CCc1ccc(-n2c(N3CCN(c4ccc(F)cc4)CC3)nc3ccccc3c2=O)cc1", "Potency": "inactive"}, {"molecule": "COc1ccccc1NC(=O)CSc1nnc(COc2ccc(Cl)cc2)n1Cc1ccco1", "Potency": "inconclusive: 56.2 µM [inhibitor, partial curve]"}, {"molecule": "O=C(N/N=C/C=C/c1ccco1)C(O)c1ccccc1", "note": "(centres undefined)", "Potency": "active: 12.6 µM"}, {"molecule": "CCCCCCCn1ccc(=N)cc1", "Potency": "inactive"}, {"molecule": "COc1ccc(-c2nc(SCC(=O)NC3CCCC3)c(-c3ccc(F)cc3)[nH]2)cc1OC", "Potency": "inactive"}, {"molecule": "CSc1nnc(C)c(=O)n1COC(=O)c1cc(Cl)ccc1[N+](=O)[O-]", "Potency": "inconclusive: 70.8 µM [inhibitor, single point]"}, {"molecule": "COc1cccc(NC(=O)C/C(C)=N/NC(=O)C2CCCCC2)c1", "Potency": "inconclusive: 50.1 µM [inhibitor, partial curve]"}, {"molecule": "CSc1nc2ccccc2n1CC(=O)Nc1c(C)n(C)n(-c2ccccc2)c1=O", "Potency": "inactive"}, {"molecule": "Cc1onc(C(=O)Nc2cccnc2Cl)c1[N+](=O)[O-]", "Potency": "inconclusive: 50.1 µM [inhibitor, partial curve, poor fit]"}, {"molecule": "O=C(/C=C/c1ccco1)NCc1ccco1", "Potency": "active: 70.8 µM"}, {"molecule": "COCC(C)n1c(C)cc(C(=O)COc2ccc(N(C)S(=O)(=O)c3ccc(NC(C)=O)cc3)cc2)c1C", "note": "(centres undefined)", "Potency": "inactive"}, {"molecule": "OCCNCCOc1ccccc1-c1ccccc1", "Potency": "inactive"}, {"molecule": "O=C(C1=C[C@@H](c2csc3ccccc23)C[C@@H](OCc2ccc(CO)cc2)O1)N1CCN(Cc2ccc3c(c2)OCO3)CC1", "Potency": "inconclusive: 56.2 µM [inhibitor, partial curve, poor fit]"}, {"molecule": "CCc1ccc2occ(CC(=O)Nc3c(C(=O)c4ccccc4)oc4ccccc34)c2c1", "Potency": "inconclusive: 89.1 µM [inhibitor, partial curve, poor fit]"}, {"molecule": "CCOC(=O)c1c(C)[nH]c(=S)c(C#N)c1-c1ccccc1", "Potency": "inconclusive: 1.58 µM [inhibitor, full curve]"}, {"molecule": "Cc1ccnc(NC(c2cccc(O)c2)c2ccc3ccc(C)nc3c2O)c1", "note": "(centres undefined)", "Potency": "inconclusive: 15.8 µM [inhibitor, full curve]"}, {"molecule": "COc1ccc(-c2onc(C)c2C)cc1S(=O)(=O)NCCc1ccco1", "Potency": "inactive"}, {"molecule": "O=C(COc1ccccc1Br)Nc1ccc(S(=O)(=O)N2CCCC2)cc1", "Potency": "inactive"}, {"molecule": "C[N+](C)(C)C/C=C1/COCO1", "Potency": "inconclusive: 28.2 µM [inhibitor, single point]"}, {"molecule": "CCOC(=O)C1=CN(Cc2ccco2)S(=O)(=O)NC1CC", "note": "(centres undefined)", "Potency": "inconclusive: 50.1 µM [inhibitor, partial curve]"}, {"molecule": "COc1ccc(NC(=O)CCc2nc3cccnc3n2-c2ccccc2)cc1Cl", "Potency": "inactive"}, {"molecule": "Cc1ccccc1CSCCNC(=O)C1CCN(S(=O)(=O)Cc2ccccc2)CC1", "Potency": "inconclusive: 70.8 µM [inhibitor, single point]"}, {"molecule": "Cc1ccc(NC(=O)CSC2=C(C#N)C(c3ccc4c(c3)OCO4)C3=C(CCCC3=O)N2)c(C)c1", "note": "(centres undefined)", "Potency": "active: 28.2 µM"}, {"molecule": "O=C(C[n+]1ccc(CCSc2ccc(F)cc2)cc1)c1ccccc1", "Potency": "inconclusive: 12.6 µM [inhibitor, full curve]"}, {"molecule": "O=C1/C(=C\\c2ccc(Cl)c(Cl)c2)CN(C(=O)CCN2CCOCC2)C/C1=C/c1ccc(Cl)c(Cl)c1", "Potency": "active: 1.41 µM"}, {"molecule": "NS(=O)(=O)c1cccc(NC(=S)NC(=O)c2cccc([N+](=O)[O-])c2)c1", "Potency": "inconclusive: 12.6 µM [inhibitor, partial curve]"}, {"molecule": "CCOC(=O)CC(NC(=O)c1cc2cccc(OC)c2oc1=O)c1cccc([N+](=O)[O-])c1", "note": "(centres undefined)", "Potency": "inactive"}, {"molecule": "CCOC(=O)N1CCN(C(=O)c2ccc3nc(-c4ccccc4)c(-c4ccccc4)nc3c2)CC1", "Potency": "inconclusive: 89.1 µM [inhibitor, single point]"}, {"molecule": "Cc1ccc(Nc2c(-c3ccc(N4CCOCC4)cc3)nc3c(C)cccn23)cc1", "Potency": "inconclusive: 89.1 µM [inhibitor, single point]"}, {"molecule": "Cc1ccc(S(=O)(=O)c2cc3cc(Br)ccc3oc2=O)cc1", "Potency": "inconclusive: 50.1 µM [inhibitor, partial curve]"}, {"molecule": "CC(=O)c1cccc(NC(=S)Nc2ccc(F)cc2)c1", "Potency": "inconclusive: 50.1 µM [inhibitor, partial curve, poor fit]"}, {"molecule": "CCn1cc(-c2n[nH]c(=S)n2-c2ccc(C)cc2Br)c(=O)c2ccc(C)nc21", "Potency": "inconclusive: 50.1 µM [inhibitor, partial curve]"}, {"molecule": "COc1ccc(-c2cc(C(=O)Nc3ccccc3N3CCOCC3)c3ccccc3n2)cc1OC", "Potency": "inactive"}, {"molecule": "CC(CCc1ccccc1)NC(=O)C(=O)Nc1ccccc1", "note": "(centres undefined)", "Potency": "inactive"}, {"molecule": "O=C(C1CCCCC1)N(Cc1cccnc1)c1nc2c(F)cc(F)cc2s1", "Potency": "inactive"}, {"molecule": "CCN1CCOC(=O)C1CC(=O)Nc1ccc(C)c(Cl)c1", "note": "(centres undefined)", "Potency": "inconclusive: 70.8 µM [inhibitor, partial curve]"}, {"molecule": "Cc1ccc(C(=O)N/N=C(/CC(=O)c2cccs2)C(F)(F)F)cc1", "Potency": "inconclusive: 28.2 µM [inhibitor, partial curve, poor fit]"}, {"molecule": "CCc1ccc(-c2cc(C)no2)cc1S(=O)(=O)NCc1ccco1", "Potency": "inconclusive: 50.1 µM [inhibitor, partial curve]"}, {"molecule": "O=C(OCC(=O)N1CCN(C(=O)c2ccco2)CC1)c1cncc(Br)c1", "Potency": "inconclusive: 50.1 µM [inhibitor, partial curve]"}, {"molecule": "COc1ccc(C(=O)N2c3nc(-c4ccco4)nn3C3(CCCCC3)[C@@H]3CCCC[C@@H]32)cc1OC", "Potency": "inconclusive: 20 µM [inhibitor, full curve]"}, {"molecule": "N#C/C(=C\\c1cn(CC(=O)O)c2ccccc12)C(=O)NCc1ccccc1", "Potency": "inconclusive: 70.8 µM [inhibitor, partial curve]"}, {"molecule": "CC(=O)/C(=N/Nc1cccc(C)c1)N1CCOCC1", "Potency": "inconclusive: 56.2 µM [inhibitor, partial curve]"}, {"molecule": "CCCSC1=N/C(=C\\C=C\\c2ccco2)C(=O)S1", "Potency": "inconclusive: 50.1 µM [inhibitor, partial curve]"}, {"molecule": "COc1ccc(C(NC(C)=O)c2ccc3cccnc3c2O)c(OC)c1", "note": "(centres undefined)", "Potency": "inactive"}, {"molecule": "Cc1c(NC(=S)NC(=O)c2cccc3ccccc23)cccc1C(=O)O", "Potency": "inconclusive: 70.8 µM [inhibitor, partial curve]"}, {"molecule": "O=C(O)/C=C/C(=O)Nc1ccc(-c2ccccc2)cc1", "Potency": "inconclusive: 79.4 µM [inhibitor, single point]"}, {"molecule": "N#Cc1ccc(CC(=O)c2ccccc2)[nH]c1=O", "Potency": "inconclusive: 6.31 µM [inhibitor, partial curve]"}, {"molecule": "CCn1cc(C2=NC(CC(C)C)CO2)c2ccccc21", "note": "(centres undefined)", "Potency": "inactive"}, {"molecule": "Cc1ccc(N2C(S)=C(C#N)C(=O)NC2c2ccco2)cc1", "note": "(centres undefined)", "Potency": "inconclusive: 3.98 µM [inhibitor, full curve]"}, {"molecule": "O=C1CCC[C@@H]2Cc3nc4ccc(O)cc4cc3[C@@H]3CCN1[C@H]23", "Potency": "inconclusive: 89.1 µM [inhibitor, single point]"}, {"molecule": "COc1ccc(N=C2S/C(=C\\c3cc(C)n(C)c3C)C(=O)N2CC(C)C)cc1", "Potency": "inconclusive: 89.1 µM [inhibitor, single point]"}, {"molecule": "CC1=NN(c2ccccc2)C(=O)/C1=C/c1cccs1", "Potency": "inconclusive: 50.1 µM [inhibitor, single point]"}, {"molecule": "CCN(CC)CCN(Cc1cc2cc3c(cc2[nH]c1=O)OCO3)C(=S)NCCCN(C)C", "Potency": "inconclusive: 89.1 µM [inhibitor, single point]"}, {"molecule": "O=C(Nc1nc(=O)n(C(=O)c2cccc(C(F)(F)F)c2)s1)c1ccccc1", "Potency": "inconclusive: 17.8 µM [inhibitor, full curve]"}]}]}
